Data on 90 molecules can be found in PubChem BioAssay AID463173 (ICCB-Longwood Screening Facility, Harvard Medical School, 2010).

Among all 52,000 compounds or so, about 4,300 (8.3%) were called active. No stated cut-off is given here; in the data, active means survival mostly below about 52% (no sharp cut-off); inactive means mostly above about 56%. The list shows a part of the results.

The test relates to DeltatarO mutant. Kind of test: S. aureus survival, RN4220 and DeltatarO strains – OD600, teichoic acid synthesis inhibitors, primary screen (AID 463173). The following applies: S. aureus RN4220 wild type/DeltatarO growth, OD600, 18 h, hits give low values, screened at 18.75 µg/mL (by protocol).
For `CNC(=O)C1CCC(Cn2c(=O)c3sccc3n(CC(=O)Nc3cc(F)ccc3F)c2=O)CC1` (stereo not given), the survival was inactive: 79%.

Turning to `CCOC(=O)c1cccc(NC(=O)N2CCC(CN3CCCCCC3)CC2)c1`, the survival is inactive: 74%.

`Cn1c(=O)[nH]c(=O)c2c1nc(N1CCCC1)n2CCO`: the survival was inactive: 85%.

On to `O=C(Nc1ccc2oc(-c3cccc(Cl)c3Cl)nc2c1)c1cccc(Br)c1`, for which the survival was inactive: 73%.

In the case of `O=C(c1cn(CCOc2ccc(Cl)cc2)c2ccccc12)C1CCCCC1`, the survival is active: 14%.

With `O=[N+]([O-])c1cc(-c2nc(-c3ccncc3)no2)ccc1NCc1ccccc1`, the survival is inactive: 109%.

As for `COc1cn(CC(=O)Nc2cc(C)ccc2C)c(CN2CCCCC2)cc1=O`, the survival was inactive: 90%.

Consider `Cc1cc(C)cc(Nc2cc(C(=O)NCc3ccccc3)c3ccccc3n2)c1`, for which the survival was inactive: 113%.

On to `O=C(Nc1ccccc1C(F)(F)F)c1cc2ccccn2n1`, for which the survival was inactive: 80%.

With `Cc1cc(C)c(NC(=O)C(C)n2nnc3sc(-c4ccccc4)cc3c2=O)c(C)c1` (stereo not given), the survival was inactive: 101%.

`CCOC(=O)C1CCN(C(c2ccc(F)cc2)c2sc3nc(-c4ccco4)nn3c2O)CC1` (stereo not given): the survival was inactive: 70%.

For the molecule `CCOc1cc(CNCCSc2nnnn2-c2ccccc2)ccc1OC`, the survival is inactive: 60%.

Consider `CCOC(=O)C1(c2ccccc2)NC(c2ccc(O)c(OC)c2)C2C(=O)N(C)C(=O)C21` (stereo not given), for which the survival was inactive: 81%.

For `CCOc1ccc(C(=O)c2cn(CC(=O)Nc3cc(OC)ccc3OC)c3cc(OC)c(OC)cc3c2=O)cc1`, the survival was inactive: 70%.

Take `CCCn1c2c(c(O)c(C(=O)Nc3ccccc3F)c1=O)CCCC2`: the survival was inactive: 93%.

Consider `COc1ccc(-c2ccc(=O)n(CC(=O)NCCc3ccccc3)n2)cc1`, for which the survival was inactive: 70%.

Take `CCc1ccc(OCCSc2nc(-c3cccc(C)c3)nc3cc(=O)[nH]n23)cc1`: the survival was inactive: 75%.

In the case of `CC(C)(C)C/C(=N/O)c1ccccc1`, the survival was inactive: 89%.

Regarding `COc1ccc(NC(=O)CCSc2nc(-c3ccco3)cc(C(F)(F)F)n2)cc1OC`, the survival was inactive: 50%.

As to `O=C(CN1C(=O)C2(SCC(=O)N2c2ccc(F)cc2)c2ccccc21)NCCc1ccccc1` (stereo not given), the survival was inactive: 85%.

On to `CC(=O)Nc1ccc(C(=O)CSc2nnc3ccc4ccccc4n23)cc1`, for which the survival is inactive: 75%.

As for `c1ccc2c(c1)nc(N1CCOCC1)c1ccccc12`, the survival was inactive: 86%.

For `O=S(=O)(NCc1ccc(Cl)cc1)c1ccc(N2CCCCS2(=O)=O)cc1`, the survival was inactive: 113%.

Consider `CCOc1ccc(NC(=O)NCCN2CCN(c3ccccc3F)CC2)cc1`, for which the survival is inactive: 87%.

As for `CSc1ccc(CCNC(=O)c2cc3c(-c4ccccc4F)nn(C)c3s2)cc1`, the survival was inactive: 55%.

For `CCOC(=O)c1cccc(NC(=O)c2cc3cc4ccc(C)cc4nc3s2)c1`, the survival is inactive: 96%.

Take `Nc1c(C(=O)NCc2ccccc2)nnn1Cc1cccc(Br)c1`: the survival is inactive: 67%.

In the case of `CCOC(=O)c1cc(-c2ccc(F)cc2)n(CCC(=O)NC2CCCCC2)c1C`, the survival is inactive: 91%.

With `O=C(N1CCCC1)N1c2ccccc2Sc2ccccc21`, the survival is inactive: 111%.

Regarding `Cc1cc(C)cc(Nc2nc3c(S(=O)(=O)c4cccc(Cl)c4)nnn3c3ccsc23)c1`, the survival was inactive: 42%.

Regarding `Cc1nc2nc[nH]n2c(=O)c1NC(=O)CC12CC3CC(CC(C3)C1)C2`, the survival was inactive: 101%.

Consider `O=C(O)c1cccnc1N1CCOCC1`, for which the survival is inactive: 84%.

Take `Cc1ccc(C)c(NC(=O)CCCN2C(=O)C(c3ccccc3)Oc3cccnc32)c1` (stereo not given): the survival is inactive: 85%.

On to `O=C(CNC(=O)c1ccc(Cl)cc1)OCc1cc(=O)n2nc(C3CCCCC3)sc2n1`, for which the survival was inactive: 90%.

As to `COC(=O)CN(c1ccccc1)S(=O)(=O)c1ccc(OC)cc1`, the survival was inactive: 97%.

Regarding `Nc1c(C(=O)Nc2ccc(Br)cc2)sc2nc(-c3ccncc3)ccc12`, the survival is inactive: 74%.

As to `COc1cccc(NC(=O)c2ccc(-c3nc(COc4ccc(C)cc4)c(C)o3)cc2)c1`, the survival was inactive: 83%.

On to `Cc1ccc2c(c1)c1c(c(=O)n(-c3ccccc3C)c(=O)n1CC(=O)NCC1CCCO1)n2C` (stereo not given), for which the survival was inactive: 95%.

For the molecule `Cc1cc(=O)n2nc(N3CCC(C(=O)Nc4ccc(Br)cc4F)CC3)sc2n1`, the survival is inactive: 94%.

With `CCCCSCCCNC(=O)C1CCN(Cc2nc(-c3cccc(Br)c3)oc2C)CC1`, the survival was inactive: 68%.

`COc1ccccc1CNC(=O)c1ccc(N2CCCC2)c(NC(=O)NCc2ccc(F)cc2)c1`: the survival was inactive: 112%.

Turning to `CCOC(=O)C1=C(CN(CC)Cc2ccccc2)NC(=O)NC1c1ccc(OC(C)C)cc1` (stereo not given), the survival was inactive: 74%.

Consider `CCOc1ccc(CCNC(=O)c2[nH]c3cc(OC)ccc3c2Sc2ccccc2)cc1OCC`, for which the survival is inactive: 75%.

Consider `CC(C)CN(CCCNC(=O)CN1N=C(c2ccccc2)CCC1=O)CC(C)C`, for which the survival is inactive: 130%.

Turning to `CC(=O)c1cc2c(cc1NC(=O)c1cnn(-c3ccc(C)cc3)c1-n1cccc1)OCO2`, the survival is inactive: 72%.

For the molecule `COc1ccc(N2CCN(c3ccc(-c4nc(-c5cccc(C)c5)no4)cc3[N+](=O)[O-])CC2)cc1`, the survival is inactive: 75%.

For `O=C(NCCC1=CCCCC1)c1ccc2c(c1)N(Cc1cccc(Cl)c1)C(=O)c1ccccc1S2(=O)=O`, the survival was inactive: 71%.

Take `Cc1cc(C)c(NC(=O)CSc2nc(-c3ccc(F)cc3)nc3c2Cc2c(CO)cnc(C)c2O3)c(C)c1`: the survival was inactive: 60%.

In the case of `O=c1c2c([nH]c3ccccc13)CCCCC2`, the survival was inactive: 86%.

Take `O=C(O)CCC(=O)CCN1CCCCC1`: the survival was inactive: 64%.

As to `Cc1ccccc1CSc1nc2cccnc2n1Cc1ccc(C(=O)NC2CC2)cc1`, the survival was inactive: 79%.

For the molecule `CCOc1ccc(Nc2nc(C)c(NC(=O)c3cccc(OC)c3)c(Nc3ccc(OCC)cc3)n2)cc1`, the survival was inactive: 112%.

For `CCOC(=O)c1ccccc1NC(=O)CSc1cn(CC(=O)N2CCOCC2)c2ccccc12`, the survival is inactive: 102%.

`COc1ccc(CNC(=O)C2CCC(CNS(=O)(=O)c3cccs3)CC2)cc1` (stereo not given): the survival was inactive: 71%.

Consider `Cc1ccc(N2CCN(S(=O)(=O)c3nnc(NC(=O)c4ccc(C(C)C)cc4)s3)CC2)cc1`, for which the survival was active: 42%.

Regarding `CCOc1ccc(NC(=O)Cn2c(=O)cc(C)c3c(C)nn(-c4cccc(Cl)c4C)c32)cc1`, the survival is inactive: 124%.

Take `CCOc1ccc(S(=O)(=O)c2cn(Cc3ccc(OC)cc3)c3ccc(F)cc3c2=O)cc1`: the survival was inactive: 65%.

On to `CCOc1ccc(C(=O)N2CCN(CCc3ccccn3)CC2)cc1`, for which the survival is inactive: 59%.

Turning to `Cc1nn(-c2ccc(N3CCCC3)nn2)c(C)c1CCC(=O)NCc1ccc(OC(C)C)cc1`, the survival was inactive: 80%.

Regarding `Cn1c(=O)[nH]c(=O)c2c1nc1n2CCN1c1ccccc1`, the survival was inactive: 194%.

In the case of `CC(C)c1ccc(NC(=O)CCNS(=O)(=O)c2ccc3c(c2)CCCC(=O)N3)cc1`, the survival is inactive: 77%.

In the case of `CCOC(=O)CC(NC(=O)CCc1c(C)nc2ncnn2c1C)c1ccc(OC(C)C)cc1` (stereo not given), the survival is inactive: 114%.

As to `Cc1ccc(Cl)cc1-n1ncc2c(N3CCC(C)CC3)ncnc21`, the survival was inactive: 128%.

Consider `Cc1ccc(CNC(=O)CN2CCN(Cc3ccc(F)cc3)C2=O)cc1`, for which the survival is inactive: 95%.

Turning to `O=C(NCc1ccccc1)C1CCN(S(=O)(=O)c2ccc3[nH]c(=O)ccc3c2)CC1`, the survival was inactive: 70%.

`Cc1cccc(N(C)S(=O)(=O)c2c(C(=O)N3CCCCCC3)c(C)n(C)c2C)c1`: the survival is inactive: 75%.

As for `Cc1cc2nc(-c3cccc(NC(=O)COc4ccc(Cl)c(C)c4)c3)oc2cc1C`, the survival was inactive: 64%.

As for `COc1ccccc1-c1cc(NC(=O)COc2ccc(C)c(C)c2)n(-c2ccccc2)n1`, the survival is inactive: 99%.

Consider `COc1ccccc1NC(=O)C1CCN(S(=O)(=O)c2cn(C)cn2)CC1`, for which the survival is inactive: 69%.

For the molecule `COc1ccc(CN(Cc2cccnc2)C(=S)NCc2ccco2)cc1OC`, the survival is inactive: 75%.

Consider `CCOc1ccc(NC(=O)CN2C(C(=O)OC)=C(c3ccccc3)c3cc(Cl)ccc3S2(=O)=O)cc1`, for which the survival was inactive: 63%.

Regarding `Cc1cc(=O)[nH]c2nnc(SCc3ccc(Cl)cc3)n12`, the survival is inactive: 129%.

For the molecule `COC(=O)C1=C(c2ccccc2)c2ccccc2S(=O)(=O)N1CC(=O)Nc1ccc(OC)cc1OC`, the survival was inactive: 166%.

For `COc1ccc(C(C)C)cc1S(=O)(=O)N1CC(C)OC(C)C1` (stereo not given), the survival was inactive: 88%.

In the case of `CC1=C(C(=O)Nc2ccc(F)cc2F)C2(CCCCCC2)OC1=O`, the survival was inactive: 83%.

Take `O=C(CSc1nccn1Cc1ccc(Cl)cc1)NCc1ccccc1`: the survival is inactive: 49%.

As to `COc1ccccc1CNC(=O)C(CC(C)C)N1Cc2ccccc2C1=O` (stereo not given), the survival is inactive: 87%.

Regarding `CCOC(=O)c1ccc(N2C(=O)c3n[nH]c(-c4ccco4)c3C2c2ccc(F)cc2)cc1` (stereo not given), the survival is active: 22%.

With `Cc1cccc(CC(=O)NCCc2csc(-c3ccc(C(F)(F)F)cc3)n2)c1`, the survival is inactive: 101%.

`Cc1ccc(C)c(C(=O)COC(=O)CCCC(=O)Nc2cc(C(F)(F)F)ccc2Cl)c1`: the survival was active: 25%.

As to `CCOc1ccc(CCNC(=O)c2cnc3sc(N4CCCCCC4)nn3c2=O)cc1`, the survival was inactive: 94%.

For `COc1ccc(OC)c(NC(=O)CN2CCCN(Cc3cc(C)ccc3C)S2(=O)=O)c1`, the survival was inactive: 89%.

With `CC(C)OCc1cc(CN2CCN(c3ccccc3)CC2)c(O)c2ncccc12`, the survival is inactive: 71%.

Take `O=C(Cn1ncc2c(Cl)cccc21)NCc1cccc(Br)c1`: the survival is inactive: 116%.

`Cc1ccc(Cn2c(CCCNC(=O)C3CCCCC3)nc3ccccc32)cc1`: the survival is inactive: 97%.

As to `CC(C)CCNC(=O)c1ccc2c(c1)N(Cc1ccccc1F)C(=O)c1ccccc1S2=O` (stereo not given), the survival was inactive: 84%.

As to `COc1ccccc1OCC(=O)NCC1(N(C)C)CCCCC1`, the survival was inactive: 91%.

On to `COc1ccc(C(=O)NCCSc2ccccn2)cc1`, for which the survival is inactive: 78%.

In the case of `Cc1ccc(N2CC(NC(=O)C(=O)c3c[nH]c4ccccc34)CC2=O)cc1` (stereo not given), the survival is inactive: 102%.

`Cc1oc(C(=O)O)cc1CSCc1cc(C(=O)O)oc1C`: the survival is inactive: 80%.
